Source: patent US20150183847A1

B1: IN-6 (protein)
chain: [in this place about 40 residues]GSGSSSAAAPQT[in this place about 20 residues]GGGGSRPSGRKSSKMQAFRIWDVNQKTFYLRNNQLVAGYLQGPNVNLEEKIDVVPIEPHALFLGIHGGKMSLSSVKSGDETRLQLEAVNITDLSENRKQDKRFAFIRSDSGPTTSFESAASPGWFLSTAMEADQPVSLTNMPDEGVMVTKFYFQEDE
B2: IN-9 (protein)
chain: [in this place about 40 residues]GSGSSSAAAPQT[in this place about 20 residues]GGGGSGGGGSRPSGRKSSKMQAFRIWDVNQKTFYLRNNQLVAGYLQGPNVNLEEKIDVVPIEPHALFLGIHGGKMSLSSVKSGDETRLQLEAVNITDLSENRKQDKRFAFIRSDSGPTTSFESAASPGWFLSTAMEADQPVSLTNMPDEGVMVTKFYFQEDE
B3: IN-12 (protein)
chain: [in this place about 40 residues]GSGSSSAAAPQT[in this place about 20 residues]GGGGSGGGGSGGGGSRPSGRKSSKMQAFRIWDVNQKTFYLRNNQLVAGYLQGPNVNLEEKIDVVPIEPHALFLGIHGGKMSLSSVKSGDETRLQLEAVNITDLSENRKQDKRFAFIRSDSGPTTSFESAASPGWFLSTAMEADQPVSLTNMPDEGVMVTKFYFQEDE
B4: IN-15 (protein)
chain: FVNQHLCGSHLVEALYLVCGERGFFGSGSSSAAAPQT[in this place about 20 residues]RPSGRKSSKMQAFRIWDVNQKTFYLRNNQLVAGYLQGPNVNLEEKIDVVPIEPHALFLGIHGGKMSLSSVKSGDETRLQLEAVNITDLSENRKQDKRFAFIRSDSGPTTSFESAASPGWFLSTAMEADQPVSLTNMPDEGVMVTKFYFQEDE
B5: IN-18 (protein)
chain: FVNQHLCGSHLVEALYLVCGERGFFGSGSSSAAAPQT[in this place about 20 residues]GGGGSRPSGRKSSKMQAFRIWDVNQKTFYLRNNQLVAGYLQGPNVNLEEKIDVVPIEPHALFLGIHGGKMSLSSVKSGDETRLQLEAVNITDLSENRKQDKRFAFIRSDSGPTTSFESAASPGWFLSTAMEADQPVSLTNMPDEGVMVTKFYFQEDE
B6: IN-21 (protein)
chain: FVNQHLCGSHLVEALYLVCGERGFFGSGSSSAAAPQT[in this place about 20 residues]GGGGSGGGGSRPSGRKSSKMQAFRIWDVNQKTFYLRNNQLVAGYLQGPNVNLEEKIDVVPIEPHALFLGIHGGKMSLSSVKSGDETRLQLEAVNITDLSENRKQDKRFAFIRSDSGPTTSFESAASPGWFLSTAMEADQPVSLTNMPDEGVMVTKFYFQEDE
B7: IN-24 (protein)
chain: FVNQHLCGSHLVEALYLVCGERGFFGSGSSSAAAPQT[in this place about 20 residues]GGGGSGGGGSGGGGSRPSGRKSSKMQAFRIWDVNQKTFYLRNNQLVAGYLQGPNVNLEEKIDVVPIEPHALFLGIHGGKMSLSSVKSGDETRLQLEAVNITDLSENRKQDKRFAFIRSDSGPTTSFESAASPGWFLSTAMEADQPVSLTNMPDEGVMVTKFYFQEDE
B8: IN-64 (protein)
chain: RPSGRKSSKMQAFRIWDVNQKTFYLRNNQLVAGYLQGPNVNLEEKIDVVPIEPHALFLGIHGGKMSLSSVKSGDETRLQLEAVNITDLSENRKQDKRFAFIRSDSGPTTSFESAASPGWFLSTAMEADQPVSLTNMPDEGVMVTKFYFQEDEGGGGSGGGGS[in this place about 40 residues]GSGSSSAAAPQT[in this place about 20 residues]
B9: IN-3 (protein)
chain: [in this place about 40 residues]GSGSSSAAAPQT[in this place about 20 residues]RPSGRKSSKMQAFRIWDVNQKTFYLRNNQLVAGYLQGPNVNLEEKIDVVPIEPHALFLGIHGGKMSLSSVKSGDETRLQLEAVNITDLSENRKQDKRFAFIRSDSGPTTSFESAASPGWFLSTAMEADQPVSLTNMPDEGVMVTKFYFQEDE

What follows are binders tested against interleukin-1 receptor (human (CHO-derived cells) or murine (EL4 cells); not stated which gave the tables) (UniProt P14778) (assay: competition with 35S-IL-1Ra on IL-1 receptor cells).
A % of wild type activity (IC50 ratio) of 37% was found for B1 in this work. A % of wild type activity (IC50 ratio) of 47% was found for B2 in this work. A % of wild type activity (IC50 ratio) of 48% was found for B3 in this work. A % of wild type activity (IC50 ratio) of 32% was found for B4 in this work. A % of wild type activity (IC50 ratio) of 40% was found for B5 in this work. A % of wild type activity (IC50 ratio) of 43% was found for B6 in this work. A % of wild type activity (IC50 ratio) of 45% was found for B7 in this work. A % of wild type activity (IC50 ratio) of 42% was found for B8 in this work. A % of wild type activity (IC50 ratio) of 35% was found for B9 in this work.
